Assay results reported in the supplement of paper PMC9151546.
Structures can show the parent of a compound that is named as a salt. Most values come without repeats; read them as rough.

Key:
[1] = test system: CHO-K1; test: hypodiploid nuclei frequency (% of nucleated events); higher = more hypodiploid events (aneugenic)
Experimental: (§1)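 Flow-cytometric in vitro micronucleus assay (Litron MicroFlow) in CHO-K1 cells in 96-well plates, 19 concentrations (4.5-200 µM, n=1 per concentration). Without S9, cells were exposed for 24 h and sampled at 48 h. With Aroclor 1254-induced rat liver S9, cells were exposed for 3-4 h and sampled at 27-28 h. Read-outs are %MN and %hypodiploid nuclei relative to nucleated events, and relative survival as the nuclei-to-bead ratio versus the 1% DMSO vehicle control (x100).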

[2] = test system: CHO-K1; test: relative survival (nuclei to bead ratio vs DMSO control) (% of vehicle control); higher = more surviving cells
Experimental: as §1

[3] = test system: CHO-K1; test: micronucleus frequency (% of nucleated events); higher = more micronuclei (genotoxic)
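For hypodiploid nuclei frequency (% of nucleated events) in this document: hypodiploid nuclei gated on a flow cytometer with 488 nm excitation after SYTOX Green staining, cultures at 37 °C, positive controls vinblastine without S9 and cyclophosphamide with S9.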
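For micronucleus frequency (% of nucleated events) in this document: cells lysed with nuclei stained by SYTOX Green, then micronucleus-gated events counted against nucleated events by flow cytometry with 488 nm excitation.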
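For relative survival (nuclei to bead ratio vs DMSO control) in this document: Lysed-cell nuclei stained with SYTOX Green and counted against counting beads by flow cytometry at 488 nm excitation, with vinblastine (no S9) and cyclophosphamide (plus S9) as positive controls.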

CCOC(=O)C(O)(c1ccc(Cl)cc1)c1ccc(Cl)cc1 [Chlorobenzilate]
Details	hypodiploid nuclei frequency, [1] [%]	micronucleus frequency, [3] [%]	relative survival, [2]
concentration: 4.5 (µM), S9 metabolic activation: with S9, exposure time: 3-4 hours	0.36	1.38	113
concentration: 4.5 (µM), S9 metabolic activation: without S9, exposure time: 24 hours	0.72	1.92	150
concentration: 5.63 (µM), S9 metabolic activation: with S9, exposure time: 3-4 hours	0.18	1.16	89.5
concentration: 5.63 (µM), S9 metabolic activation: without S9, exposure time: 24 hours	0.78	2.38	147
concentration: 7.04 (µM), S9 metabolic activation: with S9, exposure time: 3-4 hours	0.18	1	104
concentration: 7.04 (µM), S9 metabolic activation: without S9, exposure time: 24 hours	0.72	2.04	130
concentration: 8.8 (µM), S9 metabolic activation: with S9, exposure time: 3-4 hours	0.14	1.2	108
concentration: 8.8 (µM), S9 metabolic activation: without S9, exposure time: 24 hours	0.64	1.7	131
concentration: 11 (µM), S9 metabolic activation: with S9, exposure time: 3-4 hours	0.12	0.92	104
concentration: 11 (µM), S9 metabolic activation: without S9, exposure time: 24 hours	0.58	1.54	113
concentration: 13.7 (µM), S9 metabolic activation: with S9, exposure time: 3-4 hours	0.34	1.14	106
concentration: 13.7 (µM), S9 metabolic activation: without S9, exposure time: 24 hours	0.62	1.78	123
concentration: 17.2 (µM), S9 metabolic activation: with S9, exposure time: 3-4 hours	0.14	1	92.1
concentration: 17.2 (µM), S9 metabolic activation: without S9, exposure time: 24 hours	0.2	1.78	115
concentration: 21.5 (µM), S9 metabolic activation: with S9, exposure time: 3-4 hours	0.22	0.78	90
concentration: 21.5 (µM), S9 metabolic activation: without S9, exposure time: 24 hours	0.36	2.2	112
concentration: 26.8 (µM), S9 metabolic activation: with S9, exposure time: 3-4 hours	0.18	1.42	94.5
concentration: 26.8 (µM), S9 metabolic activation: without S9, exposure time: 24 hours	0.32	1.34	93.5
concentration: 33.6 (µM), S9 metabolic activation: with S9, exposure time: 3-4 hours	0.14	1.08	90
concentration: 33.6 (µM), S9 metabolic activation: without S9, exposure time: 24 hours	0.44	0.72	104
concentration: 41.9 (µM), S9 metabolic activation: with S9, exposure time: 3-4 hours	0.26	1.14	108
concentration: 41.9 (µM), S9 metabolic activation: without S9, exposure time: 24 hours	0.72	1.24	80
concentration: 52.4 (µM), S9 metabolic activation: with S9, exposure time: 3-4 hours	0.3	1.26	105
concentration: 52.4 (µM), S9 metabolic activation: without S9, exposure time: 24 hours	1.34	2.78	89.7
concentration: 65.5 (µM), S9 metabolic activation: with S9, exposure time: 3-4 hours	0.14	1.04	103
concentration: 65.5 (µM), S9 metabolic activation: without S9, exposure time: 24 hours	3.3	4.18	54.4
concentration: 81.9 (µM), S9 metabolic activation: with S9, exposure time: 3-4 hours	0.18	1.08	121
concentration: 81.9 (µM), S9 metabolic activation: without S9, exposure time: 24 hours	2.62	5.88	61.4
concentration: 102 (µM), S9 metabolic activation: with S9, exposure time: 3-4 hours	0.24	1.18	114
concentration: 102 (µM), S9 metabolic activation: without S9, exposure time: 24 hours	–	–	39
concentration: 128 (µM), S9 metabolic activation: with S9, exposure time: 3-4 hours	0.36	1.42	81.1
concentration: 128 (µM), S9 metabolic activation: without S9, exposure time: 24 hours	–	–	35.3
concentration: 160 (µM), S9 metabolic activation: with S9, exposure time: 3-4 hours	–	–	32.1
concentration: 160 (µM), S9 metabolic activation: without S9, exposure time: 24 hours	–	–	25.4
concentration: 200 (µM), S9 metabolic activation: with S9, exposure time: 3-4 hours	–	–	0.11
concentration: 200 (µM), S9 metabolic activation: without S9, exposure time: 24 hours	–	–	1.12

CN(C)CCCN1c2ccccc2Sc2ccc(Cl)cc21 [Chlorpromazine hydrochloride]
Details	hypodiploid nuclei frequency, [1] [%]	micronucleus frequency, [3] [%]	relative survival, [2]
concentration: 4.5 (µM), S9 metabolic activation: with S9, exposure time: 3-4 hours	0.34	3	114
concentration: 4.5 (µM), S9 metabolic activation: without S9, exposure time: 24 hours	0.66	1.24	97.1
concentration: 5.63 (µM), S9 metabolic activation: with S9, exposure time: 3-4 hours	0.36	2.28	99.2
concentration: 5.63 (µM), S9 metabolic activation: without S9, exposure time: 24 hours	0.44	1.18	90.8
concentration: 7.04 (µM), S9 metabolic activation: with S9, exposure time: 3-4 hours	0.3	2.58	102
concentration: 7.04 (µM), S9 metabolic activation: without S9, exposure time: 24 hours	0.54	1.58	86.7
concentration: 8.8 (µM), S9 metabolic activation: with S9, exposure time: 3-4 hours	0.24	1.94	94.5
concentration: 8.8 (µM), S9 metabolic activation: without S9, exposure time: 24 hours	0.56	1.1	95.2
concentration: 11 (µM), S9 metabolic activation: with S9, exposure time: 3-4 hours	0.32	2.84	125
concentration: 11 (µM), S9 metabolic activation: without S9, exposure time: 24 hours	0.76	1.42	86.4
concentration: 13.7 (µM), S9 metabolic activation: with S9, exposure time: 3-4 hours	0.3	1.54	99.2
concentration: 13.7 (µM), S9 metabolic activation: without S9, exposure time: 24 hours	0.5	1.18	84.7
concentration: 17.2 (µM), S9 metabolic activation: with S9, exposure time: 3-4 hours	0.4	2.2	110
concentration: 17.2 (µM), S9 metabolic activation: without S9, exposure time: 24 hours	1.78	1.14	82.7
concentration: 21.5 (µM), S9 metabolic activation: with S9, exposure time: 3-4 hours	0.4	2.08	154
concentration: 21.5 (µM), S9 metabolic activation: without S9, exposure time: 24 hours	0.74	1.48	67.6
concentration: 26.8 (µM), S9 metabolic activation: with S9, exposure time: 3-4 hours	0.14	1.9	94.1
concentration: 26.8 (µM), S9 metabolic activation: without S9, exposure time: 24 hours	1.12	2.12	72.2
concentration: 33.6 (µM), S9 metabolic activation: with S9, exposure time: 3-4 hours	0.3	2.12	99.2
concentration: 33.6 (µM), S9 metabolic activation: without S9, exposure time: 24 hours	2.12	2.92	57
concentration: 41.9 (µM), S9 metabolic activation: with S9, exposure time: 3-4 hours	0.24	2.22	89.8
concentration: 41.9 (µM), S9 metabolic activation: without S9, exposure time: 24 hours	1.82	3.58	47.7
concentration: 52.4 (µM), S9 metabolic activation: with S9, exposure time: 3-4 hours	0.38	2.16	65.6
concentration: 52.4 (µM), S9 metabolic activation: without S9, exposure time: 24 hours	1.18	5.4	48.8
concentration: 65.5 (µM), S9 metabolic activation: with S9, exposure time: 3-4 hours	0.33	5.31	52
concentration: 65.5 (µM), S9 metabolic activation: without S9, exposure time: 24 hours	–	–	34.7
concentration: 81.9 (µM), S9 metabolic activation: with S9, exposure time: 3-4 hours	0.34	6.63	45
concentration: 81.9 (µM), S9 metabolic activation: without S9, exposure time: 24 hours	–	–	7.92
concentration: 102 (µM), S9 metabolic activation: with S9, exposure time: 3-4 hours	0.36	5.16	57.3
concentration: 102 (µM), S9 metabolic activation: without S9, exposure time: 24 hours	–	–	0.77
concentration: 128 (µM), S9 metabolic activation: with S9, exposure time: 3-4 hours	0.2	1.76	64.6
concentration: 128 (µM), S9 metabolic activation: without S9, exposure time: 24 hours	–	–	0.06
concentration: 160 (µM), S9 metabolic activation: with S9, exposure time: 3-4 hours	–	–	38
concentration: 200 (µM), S9 metabolic activation: with S9, exposure time: 3-4 hours	–	–	7.24
concentration: 200 (µM), S9 metabolic activation: without S9, exposure time: 24 hours	–	–	0.04
